Experimental data: PubChem BioAssay AID1745845 (National Center for Advancing Translational Sciences (NCATS), 2022)
Screen size: about 360,000 compounds; about 2,600 (0.72%) were called active. Inconclusive results, whose numbers are uncertain, are shown with a selection of clear calls. Calls follow the shape of the dose curve; as a rule, active = well fitted inhibition curve with a large enough effect; inconclusive = small, poorly fitted or top-dose-only effect; inactive = no such curve, though single readings can be large or run the other way. Where the call is inconclusive, the potency comes from a doubtful curve fit.

Assay: Primary qHTS for Inhibitors of ATXN expression; also: nearly all actives have a fitted effect of over 55% in size
Settings: HEK-293 ATXN2-luciferase reporter, luminescence, 24 h; activity change, negative = inhibition: at 57 µM (top of the series)
Summary of the method: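 ATXN2-luciferase reporter cells (luciferase flanked by upstream and downstream ATXN2 gene portions) were treated 24 h at 37 °C with compounds at up to 57 uM. SteadyGlo luminescence gave expression; GF-AFC fluorescence gave viability.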
% is scaled to controls: 0 for no effect and ±100 for the full control effect; potency is read from the fitted curve at half-maximal effect; tags tell the direction and shape of the fitted curve.

Potency, inconclusive:
COC(=O)[C@]1(CC(C)C)N[C@H](c2ccc(-c3ccc(F)cc3)c(OC)c2)[C@@H]2C(=O)N(C)C(=O)[C@@H]21 39.8 µM [inhibitor, partial curve, poor fit], CC(C)S(=O)(=O)c1csc(NC(=O)Nc2ccc(Cl)cc2)c1Cl 39.8 µM [inhibitor, single point], O=C(Cn1nc(C(F)(F)F)c2c1CCCC2)Nc1ccc(F)c(Cl)c1 39.8 µM [inhibitor, single point], O=C(COc1ccc(Br)cc1CO)Nc1ccc(S(=O)(=O)N2CCCC2)cc1 28.2 µM [inhibitor, partial curve, poor fit], COc1ccc(/C=C/C(=O)Nc2ccc(Cl)c(Cl)c2)cc1OC 25.1 µM [inhibitor, single point], Cc1nc(N2CCN(S(=O)(=O)c3ccc(Br)cc3)CC2)c2c(C)c(C)sc2n1 25.1 µM [inhibitor, partial curve, poor fit], NC(=S)NN=C1c2cc(Cl)ccc2-c2c1cc(Cl)cc2[N+](=O)[O-] 33.6 µM [inhibitor, single point], CCOc1ccc(NC(=O)CN(C)C(=O)c2cn(-c3ccc(F)cc3)nc2-c2cccc(OC)c2)cc1OCC 7.08 µM [inhibitor, single point], C=C(C)c1nc(Oc2ccccc2)nc(Oc2ccccc2)n1 37.7 µM [inhibitor, single point], COc1ccc(NC(C)C(=O)N/N=C/c2ccc([N+](=O)[O-])s2)cc1 (centres undefined) 37.7 µM [inhibitor, single point], CCn1cc([N+](=O)[O-])c(C(=O)N2N=C(c3ccc4ccccc4c3)CC2c2cc(Br)ccc2O)n1 (centres undefined) 39.8 µM [inhibitor, single point], CC(=O)N1c2ccc(S(=O)(=O)NCC3CCC(C(=O)Nc4ccc(F)cc4)CC3)cc2CC1C (centres undefined) 22.4 µM [inhibitor, single point], Cc1ccc(C(=O)N(c2ccccc2)C2CC(C)N(C(=O)c3ccco3)c3ccccc32)cc1 (centres undefined) 39.8 µM [inhibitor, partial curve, poor fit], CCc1ccc(NC(=O)N(Cc2cn(CC)c3ccccc23)C2CCCCC2)cc1 39.8 µM [inhibitor, single point], COc1cccc(CN2CCN(C(=O)Nc3ccc([N+](=O)[O-])cc3)CC2)c1 8.44 µM [inhibitor, single point], CCOC(=O)/C(C#N)=C1/C=C(C)NC(c2ccccc2O)=N1 11.2 µM [inhibitor, partial curve], CCOC(=O)c1c(C)oc2c1c(C(c1ccccc1)N1CCOCC1)c(O)c1ccccc12 (centres undefined) 39.8 µM [inhibitor, single point], Cc1cc2ccccc2nc1SCC(=O)Nc1nc(-c2ccccc2)cs1 28.2 µM [inhibitor, partial curve, poor fit], O=CC1=C(c2ccccc2)Oc2ccccc2O1 25.1 µM [inhibitor, single point], CCCCNC(=O)C1(C)CCCCN1Cc1ccccc1-c1ccccc1 (centres undefined) 39.8 µM [inhibitor, single point], O=C1N[C@H](Cc2ccccc2)COC(=O)[C@@H](Cc2ccc(F)cc2)C/C=C\C[C@H]1CC(=O)N(CCO)Cc1ccccc1 39.8 µM [inhibitor, single point], COc1cc(CNCCc2ccccc2)cc(Cl)c1OCc1ccccc1 31.6 µM [inhibitor, single point], Cc1ccccc1CCN(C(=O)Cn1nnc2ccccc21)C(C(=O)NC(C)(C)C)c1ccsc1 (centres undefined) 25.1 µM [inhibitor, partial curve, poor fit], CCCC[C@@H]1CN=C(N)N1CCc1cc(C(F)(F)F)cc(C(F)(F)F)c1 31.6 µM [inhibitor, single point], CCc1nc2c(OCc3cc(Cl)cc(Cl)c3)cccn2c1N(C)C(=O)c1ccc(OC)cc1 25.1 µM [inhibitor, single point], CC(C)C[C@H](CO)Nc1nc(N(C)c2cccc(Cl)c2)c2ncn(C(C)C)c2n1 28.2 µM [inhibitor, single point], Cc1cccc(N2CCN(C(=O)c3ccc(N4CCCC4=O)cc3)CC2)c1C 28.2 µM [inhibitor, partial curve, poor fit], O=C(N/N=C/c1ccccn1)c1cc(-c2ccc3ccccc3c2)n[nH]1 7.94 µM [inhibitor, partial curve], O=C(c1ccc(Oc2ccc([N+](=O)[O-])cc2Cl)cc1)N1CCCC1 37.7 µM [inhibitor, single point], CC/C(=N\NC(=O)c1cc(C)nc2ccccc12)c1ccc(C)s1 37.7 µM [inhibitor, single point], COc1ccc(-n2c(=O)c3sc4ccccc4c3n(CC(=O)NCc3ccccc3)c2=O)cc1 3.16 µM [inhibitor, single point], COc1ccccc1N1CCN(C(=O)c2cc(-c3ccc(Cl)cc3)on2)CC1 31.6 µM [inhibitor, single point], CCOc1ccc(N2CC(c3nc4ccccc4n3Cc3cccc(C)c3)CC2=O)cc1 (centres undefined) 39.8 µM [inhibitor, partial curve, poor fit], Cc1ccc(C(=O)O/N=C(\N)c2ccccn2)cc1C 39.8 µM [inhibitor, single point], Cc1[nH]c2ccccc2c1C(=O)COC(=O)c1ccc([N+](=O)[O-])s1 3.77 µM [inhibitor, partial curve, poor fit], O=C(C1CCC(CNc2nc(=S)[nH]c3ccccc23)CC1)N1CCN(c2ccc(F)cc2)CC1 (centres undefined) 37.7 µM [inhibitor, single point], CNc1ncnc(Sc2nc(N)nc3nc[nH]c23)c1[N+](=O)[O-] 1.34 µM [inhibitor, full curve, poor fit], COc1ccc(Cl)cc1C(=O)Nc1ccc(CN2CCCCC2)cc1 10 µM [inhibitor, partial curve], NC(Cc1ccccc1)c1csc(Nc2nncc3ccccc23)n1 (centres undefined) 39.8 µM [inhibitor, single point], CN(CC(=O)Nc1ccccc1Cl)C(=O)COC(=O)c1nc(Cl)c(Cl)c(Cl)c1Cl 25.1 µM [inhibitor, single point], O=C1[C@H](Oc2ccccc2)[C@@H](c2ccccc2)N1c1ccncc1 28.2 µM [inhibitor, single point], COc1ccc(C(c2c(O)nc(SC)n(C)c2=O)c2c(O)nc(SC)n(C)c2=O)cc1O 4.47 µM [inhibitor, single point], COc1ccc(CCNC(=O)c2c(C)nn(-c3ccc(F)cc3)c2-n2cccc2)c(OC)c1OC 28.2 µM [inhibitor, single point]

Potency, active:
CC1(C)CC[C@]2(C(=O)n3ccnc3)CC[C@]3(C)[C@H](C(=O)C=C4[C@@]5(C)C=C(C#N)C(=O)C(C)(C)[C@@H]5CC[C@]43C)[C@@H]2C1 3.36 µM, CCOC(=O)c1cnc(-n2nc(C)cc2C)nc1NNc1cc(C)nc(-c2ccccc2)n1 7.08 µM, CN(C)CCNc1ncnc2c1sc1nc(-c3ccccc3)c3c(c12)CCCC3 31.6 µM, Cc1ccc(-c2csc(N3CCN(CCCn4c(-c5ccncc5)nc5ccccc54)CC3)n2)cc1 22.4 µM, O=S(=O)(Nc1ccc(O)c2ccccc12)c1ccc(F)cc1 31.6 µM, CCOC(=O)Cc1ccc(NC(=O)c2ccc(C(C)(C)C)cc2)cc1 2.82 µM

Activity change, negative = inhibition, inactive:
CCOC(=O)c1ccc(NC(=O)CCc2nc(-c3ccc(Cl)cc3)no2)cc1 -20.8%, CC[n+]1c(C)cc2c(sc3ccccc32)c1C -33.7%, CCn1cc(Br)c(C(=O)Nc2ccccc2C(=O)OC)n1 -26.5%, O=C(CCCn1c(SCC(=O)NCC2CCCO2)nc2ccccc2c1=O)NCc1ccccc1 (centres undefined) 4.9%, CC(=O)NC1CC2CCCC(C1)N2C(=O)Nc1ccc(Cl)c(C(F)(F)F)c1 (centres undefined) -2.59%, CCCCOc1ccc(CSC(CC(=O)O)C(=O)O)cc1 (centres undefined) -9.98%, CC(CCc1ccccc1)NC(=O)C(Cc1ccccc1)NC(N)=O (centres undefined) -2.5%, CCOc1ccc(N(CC(=O)N2CCN(c3ccc(F)cc3)CC2)S(=O)(=O)c2c(C)noc2C)cc1 -1.82%, CCOC(=O)c1c(-c2cccs2)csc1NC(=O)CC(C)C 1.01%, Cc1ccc(S(=O)(=O)CCN2CCC(n3cccc3)CC2)cc1 9.6%, CC1(C(=O)Nc2cnc3ccccc3c2)CCN1Cc1ccc(-c2ccccc2)o1 (centres undefined) -5.96%, COc1ccc(C2OC(CCc3ccccc3)CC3=C2C(=O)OC(C)(C)O3)cc1 (centres undefined) -8.58%, COc1ccccc1OCCNC(=O)c1ccccc1C 4.31%, O=C(NCCN1CCOCC1)c1ccc2ccccc2c1 9.84%, COc1cc2c(cc1OC)C(COc1ccccc1OC)N(C(=O)c1ccccc1OC)CC2 (centres undefined) -11.2%
